The whole screen tested about 45,000 compounds, of which about 65 (0.1%) were called active. Calls follow the shape of the dose curve; as a rule, active = well fitted activation curve with a large enough effect; inconclusive = small, poorly fitted or top-dose-only effect; inactive = no such curve, though single readings can be large or run the other way. This is one part of the list.

UniProt P54803, sequence (P54803 whole entry, looked up): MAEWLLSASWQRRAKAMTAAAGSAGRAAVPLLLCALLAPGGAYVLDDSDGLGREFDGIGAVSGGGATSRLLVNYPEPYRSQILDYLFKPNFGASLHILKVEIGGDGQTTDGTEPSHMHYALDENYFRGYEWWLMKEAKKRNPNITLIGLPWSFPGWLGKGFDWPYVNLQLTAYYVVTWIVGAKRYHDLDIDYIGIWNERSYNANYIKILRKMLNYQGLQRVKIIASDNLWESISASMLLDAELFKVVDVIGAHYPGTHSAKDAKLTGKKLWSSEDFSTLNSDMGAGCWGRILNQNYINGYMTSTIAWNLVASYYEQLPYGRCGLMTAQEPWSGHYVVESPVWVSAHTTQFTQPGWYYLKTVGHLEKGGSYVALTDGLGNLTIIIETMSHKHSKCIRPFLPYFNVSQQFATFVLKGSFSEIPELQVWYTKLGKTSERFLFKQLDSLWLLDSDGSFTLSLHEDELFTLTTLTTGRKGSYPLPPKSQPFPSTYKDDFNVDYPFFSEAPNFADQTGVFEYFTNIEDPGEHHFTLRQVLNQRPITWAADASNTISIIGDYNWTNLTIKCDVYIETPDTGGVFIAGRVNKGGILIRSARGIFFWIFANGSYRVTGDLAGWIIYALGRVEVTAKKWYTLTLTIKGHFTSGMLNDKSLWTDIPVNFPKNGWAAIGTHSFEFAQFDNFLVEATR

The assay has as its target Galactocerebrosidase (Homo sapiens) (UniProt P54803). As to the kind of experiment: A Novel Cell-Based Assay to Identify Small Molecules for B -Galactocerebrosidase. Also: 0% is about no effect; nearly all actives have a fitted effect of over 65% in size. As to conditions: 145M-Twi-hGALC-G270D cells, HMU-beta-Gal fluorescence, 48 h; series mostly up to 57.5 µM; activation: at the top concentration. The method in brief:
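qHTS, 1536-well; 145M-Twi-hGALC-G270D cells (WT line also made) in DMEM/F12 + 10% FBS; compound incubation on live cells; HMU-β-gal 0.1 mM final, pH 5.2, NaTC; carbonate stop; fluorescence increase = enhanced residual activity.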
In the case of `Cc1ccc(C(=O)NCCSc2c(C)[nH]c3ccccc23)cc1C`, the “activation” value is inactive: -12.2%.
For `Cc1ccc(CSC2=Nc3ccccc3C3=NC(CCC(=O)NCCc4ccccc4)C(=O)N23)cc1` (configuration not stated) the value was inactive: -18.1%; for `COC(=O)c1cc2occc2n1Cc1ccc(F)cc1Cl`, inactive: -11.1%; for `Cc1ccc(NC(=O)CN2C(=O)CSc3ccc(S(=O)(=O)N(C)C)cc32)cc1C`, inactive: -28.7%.
For `O=C(Oc1ccccc1C(=O)O)c1ccccc1O` the value was inactive: 1.35%; for `Cc1ccc(Cl)cc1-n1c(=O)c2sc3ccccc3c2n(CC(=O)NC2CCCC2)c1=O`, inactive: 0.464%.
For `Oc1c(C(c2ccc(F)cc2)N2CCCC2)sc2nc(-c3ccco3)nn12` (configuration not stated) the value was inactive: -7.76%; for `Cc1ccc(S(=O)(=O)c2cn(C)c3cc(N4CCOCC4)c(F)cc3c2=O)c(C)c1`, inactive: -10.6%.
Consider `Cc1ccc(CCNC(=O)C2COc3ccccc3C2)cc1` (configuration not stated), for which the “activation” value is inactive: -21%.
`Cc1cc(C)n(-c2nc3cc(Cl)ccc3nc2N2CCN(c3cccc(C)c3C)CC2)n1`: the “activation” value was inactive: -5.88%.
Turning to `Cc1ccc(CCNC(=O)Cn2ncc3c([nH]c4ccccc43)c2=O)cc1`, the “activation” value was inactive: -8.43%.
In the case of `COc1ccccc1CNS(=O)(=O)c1c(C(=O)N2CCC(C)CC2)c(C)n(C)c1C`, the “activation” value is inactive: -3.85%.
Consider `Cc1ccc2c(c1)-c1onc(C(=O)N3CCN(c4cc(C)ccc4C)CC3)c1CO2`, for which the “activation” value was inactive: -6.67%.
In the case of `O=C(O)c1ccc(S(=O)(=O)N(Cl)Cl)cc1`, the “activation” value is inactive: -29.1%.
In the case of `COC(=O)c1ccccc1NC(=O)CSc1cc(-c2ccccc2)nc(C)n1` it was inactive: -17.7%.
In the case of `Clc1ccc(-c2ccc(CNCCSc3nnnn3-c3ccccc3)o2)cc1` it was inactive: -14.8%; in that of `O=C(C1CCCN(S(=O)(=O)c2cccc3nonc23)C1)N1CCN(c2ccccc2F)CC1` (configuration not stated), inactive: -9.09%; in that of `O=C(CCn1c(=O)c2cccn2c2ccc(F)cc21)NCCc1ccc(Cl)cc1`, inactive: 5.74%.
For the compound `COc1ccc(NC(=O)N2CCC(CN3CCCC3)CC2)c(OC)c1`, the “activation” value is inactive: -10.2%.
For `CCCCCN1C(C(=O)c2ccccc2)=C(NC(=O)c2ccc(OC)c(OC)c2)c2ccccc2S1(=O)=O` the value was inactive: -17.7%.
For `COc1ccc(C)cc1NC(=O)CSc1nc(=O)n(Cc2cccnc2)c2c1CCC2` the value was inactive: -22.8%.
As to `COc1ccc(OC)c(C(=O)CN2C(=O)N(c3cc(C)cc(C)c3)S(=O)(=O)c3ccccc32)c1`, the “activation” value is inactive: -13.7%.
Turning to `Clc1cccc(-n2ncc3c(NCCC4=CCCCC4)ncnc32)c1`, the “activation” value is inactive: -1.87%.
In the case of `Clc1ccccc1-c1nc(-c2ccncc2)no1` it was inactive: -17.1%; in that of `CCN(CC)S(=O)(=O)c1nnc(NC(=O)COc2ccccc2)s1`, inactive: -3.82%; in that of `COc1ccc(C2(CNC(=O)C(=O)Nc3ccc(C)c(Cl)c3)CCCC2)cc1OC`, inactive: -27.5%.
Take `COc1c(C)c2c(c(O)c1C/C=C(\C)CCC(=O)O)C(=O)OC2`: the “activation” value was inactive: 2.46%.
In the case of `CC(=O)c1ccc(N2C(=O)N(Cc3ccc(F)cc3)c3ccccc3S2(=O)=O)cc1` it was inactive: 0.0981%; in that of `CCN1CCN(c2oc(-c3ccc(COc4ccc(OC)cc4)o3)nc2C#N)CC1`, inactive: -16.4%; in that of `CC(C)(C)OC(=O)N1CCC(c2c(C(=O)NCCN3CCOCC3)cnn2-c2cccc(F)c2)CC1`, inactive: -14.1%.
With `O=C(CSc1nc2c(c(=O)[nH]1)CCC2)Nc1cccc(O)c1`, the “activation” value is inactive: -14.4%.
For the compound `CC(NC(=O)c1cccc(Nc2nc3ccccc3n3nnnc23)c1)c1ccccc1` (configuration not stated), the “activation” value is inactive: -14.6%.
As for `COc1ccc(OC)c(NC(=O)Nc2cccc(OCc3cc(=O)n4cc(C)ccc4n3)c2)c1`, the “activation” value was inactive: -7.9%.
In the case of `CCCCN1C(=O)C(NC(=O)c2ccc(C(C)(C)C)cc2)(C(F)(F)F)C(C(=O)OC)=C1C` (configuration not stated), the “activation” value is inactive: -12.4%.
For `COc1ccc(NC(=O)C2CCN(c3nc4ccccc4[nH]3)CC2)cc1OC` the value was inactive: 2.61%; for `Cc1ccc(NC(=O)CSc2nnc(C)s2)c(C)c1`, inactive: -3.98%; for `Cc1cc(O)c(C(c2ccc(F)cc2)N2CCN(c3ccccc3)CC2)c(=O)n1Cc1ccco1` (configuration not stated), inactive: -5.58%.
For `Cc1ccc(S(=O)(=O)NCCc2nnc3ccc(SCc4cccc(F)c4)nn23)cc1`, the “activation” value is inactive: -9.78%.
Consider `CCn1c(=O)c2sccc2n2c(CCCC(=O)Nc3ccc(C)cc3)nnc12`, for which the “activation” value was inactive: -10.9%.
For `Cc1ccc(N2CCN(c3ncnc4onc(-c5ccc(F)cc5)c34)CC2)c(C)c1` the value was inactive: -10.3%.
With `COc1cc(NC(=O)c2c(C)nn(-c3ccc(F)cc3)c2-n2cccc2)cc(OC)c1`, the “activation” value is inactive: -14.2%.
In the case of `COc1ccc(-n2nnnc2C2CCN(S(=O)(=O)c3cc(Cl)ccc3OC)CC2)cc1` it was inactive: -12%; in that of `Cc1ccc(Nc2c(-c3ccco3)nc3ccc(C)cn23)cc1`, inactive: -16.7%; in that of `CCN(C(=O)c1cc2c(=O)oc3ccccc3c2s1)c1cccc(C(F)(F)F)c1`, inactive: 10.7%.
In the case of `CCOc1ccc(OCC)c(Nc2nc3ccccc3n3nnnc23)c1` it was inactive: -3.24%.
For `COc1ccc(-c2nc3ccccc3o2)cc1NC(=O)c1ccc(-c2ccc(C)c(Cl)c2)o1` the value was inactive: 0.663%.
For `COc1ccc(CC(=O)Nc2c(C(=O)N3CCN(c4ccccc4F)CC3)oc3ccccc23)cc1OC`, the “activation” value is inactive: -13.8%.
For `COc1ccccc1Nc1ncc2c(n1)CCN(CC(C)C)C2` the value was inactive: -5.34%.
For `COc1ccc(NC(=O)c2c(NC(=O)c3cccc(C)c3)sc3c2CCC3)cc1` the value was inactive: -7.14%; for `COc1cccc(CNC(=O)c2ccc3oc(=O)n(Cc4ccccc4)c3c2)c1`, inactive: -3%; for `COCCNC(=O)c1ccc2c(c1)NC(=O)C(CS(=O)(=O)Cc1ccc(F)cc1Cl)N2` (configuration not stated), inactive: -0.589%.
For the compound `O=C1C2=C(Nc3ccccc3SC2c2ccc(C(F)(F)F)cc2)c2ccccc21` (configuration not stated), the “activation” value was inactive: -7.07%.
As for `Cc1ccccc1CNC(=O)CCCn1ncn2c(cc3occc32)c1=O`, the “activation” value is inactive: -7.87%.
In the case of `Cc1cccc(-n2nnc(-c3nc(-c4cccs4)no3)c2N)c1C` it was inactive: -10.6%; in that of `O=C(CN1C=NS(=O)(=O)c2ccccc21)Nc1ccc(Br)cc1`, inactive: -17.5%.
Regarding `COc1ccc(NC(=O)CSC2=Nc3ccccc3C3=NC(Cc4ccccc4)C(=O)N23)cc1` (configuration not stated), the “activation” value was inactive: -29.8%.
Regarding `Cc1ccc(-n2c(=O)c3ccc(C(=O)NCc4ccccc4Cl)cc3n(CC(=O)Nc3ccc(C)cc3C)c2=O)cc1`, the “activation” value was inactive: -22.6%.
In the case of `Cc1cc(C)cc(C(=O)n2nc(C)c(S(=O)(=O)N3CCOCC3)c2C)c1`, the “activation” value is inactive: 11.2%.
In the case of `O=C(CSc1ncc2c(n1)-c1ccccc1N(Cc1ccc(F)cc1)S2(=O)=O)NCCc1ccccc1` it was inactive: -9.13%; in that of `COc1cc(NC(=O)CN(c2cc(C)cc(C)c2)S(=O)(=O)c2c(C)[nH]c(=O)[nH]c2=O)cc(OC)c1`, inactive: -3.6%; in that of `C#CC(C)(CC)NC(=O)Cn1nnc(-c2ccc(OCc3c(F)cccc3Cl)cc2)n1` (configuration not stated), inactive: -18.1%.
Consider `Cc1cn2c(=O)cc(COc3ccc(NC(=O)COc4ccccc4)cc3)nc2s1`, for which the “activation” value is inactive: 4.64%.

The values above are taken from PubChem BioAssay AID1159614 (National Center for Advancing Translational Sciences (NCATS), 2016).
